Test results published in the supplement of paper PMC4967469.
Lines with a small IC50 respond at low doses; where the fit passes the top or lowest dose, that dose stands as a limit. For AUC the same curve is integrated over the 256-fold range of doses and scaled to a fraction; the more sensitive the line, the further below 1. For some of these results: Where the top dose is marked as inferred, it comes from the curve model; the source does not state it.

Key:
Assay in all cases: Viability of human cancer cell lines after 72 h of drug (GDSC screen)
BMS-345541 = compound: Cc1ccc2nc(NCCN)c3ncc(C)n3c2c1 [BMS-345541]; details: top dose 16 µM
Procedure: (§1)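 Human cancer cell lines in 384-well plates, medium with 10% serum, drug for 72 h over a 256-fold dose range (nine 2-fold or five 4-fold steps up to the top dose). Adherent lines were fixed and stained with the nucleic acid dye Syto60, suspension lines read with resazurin; signal relative to control wells, capped at 0 and 100%. One two-parameter sigmoid per drug and line, fitted in a mixed model over all curves with the slope shared within a line.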

GSK-650394 = compound: O=C(O)c1ccc(-c2c[nH]c3ncc(-c4ccccc4)cc23)cc1C1CCCC1 [GSK-650394]; details: top dose 16 µM; top dose inferred
Procedure: as §1

Bexarotene = compound: C=C(c1ccc(C(=O)O)cc1)c1cc2c(cc1C)C(C)(C)CCC2(C)C [Bexarotene]; details: top dose 8 µM
Procedure: as §1

Etoposide = compound: COc1cc([C@@H]2c3cc4c(cc3[C@@H](O[C@@H]3O[C@@H]5CO[C@@H](C)O[C@H]5[C@H](O)[C@H]3O)[C@H]3COC(=O)[C@H]23)OCO4)cc(OC)c1O [Etoposide]; details: top dose 16 µM
Procedure: as §1

NPK76-II-72-1 = compound: COc1cc(C(=O)NC2CCN(C)CC2)ccc1Nc1ncc2c(n1)N(C1CCCC1)C(C)CC(=O)N2C [NPK76-II-72-1]; details: top dose 10.24 µM; top dose inferred
Procedure: as §1

YK 4-279 = compound: COc1ccc(C(=O)CC2(O)C(=O)Nc3c(Cl)ccc(Cl)c32)cc1 [YK 4-279]; details: top dose 10 µM
Procedure: as §1

XAV 939 = compound: Oc1nc(-c2ccc(C(F)(F)F)cc2)nc2c1CSCC2 [XAV 939]; details: top dose 5 µM; top dose inferred
Procedure: as §1

AZD7762 = compound: NC(=O)Nc1cc(-c2cccc(F)c2)sc1C(=O)N[C@H]1CCCNC1 [AZD7762]; details: top dose 2 µM
Procedure: as §1

Cell Line	AUC (BMS-345541)	IC50 (BMS-345541) [µM]	AUC (GSK-650394)	IC50 (GSK-650394) [µM]	AUC (Bexarotene)	IC50 (Bexarotene) [µM]	AUC (Etoposide)	IC50 (Etoposide) [µM]	AUC (NPK76-II-72-1)	IC50 (NPK76-II-72-1) [µM]	AUC (YK 4-279)	IC50 (YK 4-279) [µM]	AUC (XAV 939)	IC50 (XAV 939) [µM]	AUC (AZD7762)	IC50 (AZD7762) [µM]
BC-3 (B-cell lymphoma, suspension)	0.878	13.3	0.718	3.81	0.958	> 8	0.663	2.68	0.484	0.583	–	–	–	–	–	–
BICR31 (head and neck, adherent)	0.935	> 16	0.86	13.6	0.955	> 8	0.552	1.39	0.979	> 10.2	–	–	–	–	–	–
CAL-148 (breast, suspension)	0.907	> 16	0.956	> 16	0.989	> 8	0.439	0.692	0.812	4.96	–	–	–	–	–	–
Caov-3 (ovary, adherent)	0.922	> 16	0.981	> 16	0.991	> 8	0.895	15.4	0.877	8.13	–	–	–	–	–	–
ECC12 (stomach, suspension)	–	–	–	–	–	–	0.508	1.06	–	–	–	–	–	–	–	–
HCC1599 (breast, suspension)	0.712	4.4	0.909	> 16	0.975	> 8	0.403	0.519	0.462	0.496	–	–	–	–	–	–
HCC-33 (small cell lung carcinoma, adherent)	0.886	> 16	0.955	> 16	0.986	> 8	0.964	> 16	0.771	3.97	–	–	–	–	–	–
KP-N-YS (neuroblastoma, adherent)	0.795	8.72	0.704	4.12	–	–	0.695	3.85	0.796	5.6	–	–	–	–	–	–
NCI-H748 (small cell lung carcinoma, suspension)	0.788	9.2	0.903	> 16	0.97	> 8	0.475	0.841	0.961	> 10.2	–	–	–	–	–	–
NCI-H2110 (non-small cell lung carcinoma, adherent)	0.886	> 16	0.926	> 16	0.943	> 8	–	–	0.727	2.88	0.836	6.85	0.985	> 5	0.672	0.381
NCI-H2171 (small cell lung carcinoma, suspension)	0.893	14.6	0.983	> 16	0.986	> 8	0.933	> 16	0.911	> 10.2	–	–	–	–	–	–
NCI-H2196 (small cell lung carcinoma, adherent)	0.859	14.4	0.945	> 16	0.987	> 8	0.798	8.09	0.801	5.29	–	–	–	–	–	–
NK-92MI (lymphoid neoplasm, suspension)	0.882	15	0.63	2.22	0.988	> 8	0.676	2.99	–	–	–	–	–	–	–	–
NOMO-1 (acute myeloid leukaemia, suspension)	0.782	7.66	0.941	> 16	0.923	> 8	–	–	0.594	1.2	0.798	5.51	0.979	> 5	0.44	0.0838
OCI-AML2 (acute myeloid leukaemia, suspension)	0.903	11.5	0.698	3.05	0.929	7.31	–	–	0.61	1.18	0.732	2.32	0.995	> 5	0.642	0.277
OCI-LY-19 (B-cell lymphoma, suspension)	0.852	10.9	0.616	2.03	0.948	> 8	–	–	0.443	0.453	0.753	3.11	0.958	> 5	0.6	0.229
OVCAR-8 (ovary, adherent)	0.915	> 16	0.809	7.29	0.961	> 8	–	–	0.711	2.34	0.744	2.85	0.981	> 5	0.693	0.407
RL (B-cell lymphoma, suspension)	0.695	3.35	0.99	> 16	0.986	> 8	–	–	0.921	> 10.2	0.976	> 10	0.983	> 5	0.774	0.718
RVH-421 (melanoma, adherent)	0.804	11.8	0.98	> 16	0.884	> 8	–	–	0.954	> 10.2	0.669	2.21	0.937	> 5	0.81	1.57
SBC-5 (small cell lung carcinoma, adherent)	0.993	> 16	0.858	9.42	0.947	> 8	–	–	0.894	8.3	0.518	0.691	0.98	> 5	0.746	0.534
SCC-3 (B-cell lymphoma, suspension)	0.914	11.5	0.995	> 16	0.996	> 8	0.496	0.98	0.966	> 10.2	–	–	–	–	–	–
SCC-9 (head and neck, adherent)	0.817	12.2	0.957	> 16	0.978	> 8	–	–	0.833	9.31	0.794	6.13	0.938	> 5	0.878	> 2
